According to publication PMC6919601, “Identification of Plasmodium dipeptidyl aminopeptidase allosteric inhibitors by high throughput screening” (PLoS ONE, 2019):
The whole screen tested about 110,000 compounds, of which about 230 (0.21%) showed an effect of 50% or more. The list shows a part of the results.
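Also: 30 min substrate incubation versus DMSO and 10 µM JCP410 controls.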

The compounds below were run against DPAP1 (Plasmodium falciparum, UniProt Q8IIJ9) (assay: primary screen, percent inhibition; read by cleavage of a fluorogenic dipeptide substrate; higher = more effect of the substance).
Chain of DPAP1 (Q8IIJ9 whole entry, looked up): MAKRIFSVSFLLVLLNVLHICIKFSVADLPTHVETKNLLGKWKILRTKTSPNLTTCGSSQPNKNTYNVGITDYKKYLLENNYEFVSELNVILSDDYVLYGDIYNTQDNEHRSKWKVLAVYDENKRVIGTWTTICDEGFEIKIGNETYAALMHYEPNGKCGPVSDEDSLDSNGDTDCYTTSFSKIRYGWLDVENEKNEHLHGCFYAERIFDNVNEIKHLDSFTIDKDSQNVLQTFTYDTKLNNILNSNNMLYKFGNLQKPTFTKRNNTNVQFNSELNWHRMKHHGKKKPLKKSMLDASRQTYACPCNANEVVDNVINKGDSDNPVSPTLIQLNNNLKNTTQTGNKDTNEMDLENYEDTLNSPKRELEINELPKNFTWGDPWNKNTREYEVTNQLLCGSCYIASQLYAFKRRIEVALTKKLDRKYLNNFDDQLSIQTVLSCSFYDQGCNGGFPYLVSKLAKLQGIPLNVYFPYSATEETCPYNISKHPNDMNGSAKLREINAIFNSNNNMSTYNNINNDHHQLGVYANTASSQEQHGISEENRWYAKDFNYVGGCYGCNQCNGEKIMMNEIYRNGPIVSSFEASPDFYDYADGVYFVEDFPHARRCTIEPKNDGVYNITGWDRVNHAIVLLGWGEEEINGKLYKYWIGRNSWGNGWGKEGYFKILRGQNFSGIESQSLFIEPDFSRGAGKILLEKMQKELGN
Set-up: species or system P. falciparum D10 trophozoite lysates; single well
In the case of `O=[N+]([O-])c1ccc(-n2nnc3ccccc32)c(C(F)(F)F)c1`, the “% Inhibition @ 10 uM” value was -0.415%. `CCN1CC2=C(OC(N)=C(C#N)C2c2ccccc2Cl)/C(=C/c2ccccc2Cl)C1` (centres unmarked) was tested, and the “% Inhibition @ 10 uM” value was 0.0719%. With `CCc1nc(Nc2nc3ccccc3s2)nc2c1CCCC2` the “% Inhibition @ 10 uM” value was -1.33%. With `O=C(Cn1cc(S(=O)(=O)N2CCCC2)c(S(=O)(=O)N2CCCC2)c1)Nc1ccccn1` the “% Inhibition @ 10 uM” value was 3.03%. For `CCC(NS(=O)(=O)c1ccc(C)cc1)C(=O)N1CCN(c2ccccn2)CC1` (centres unmarked), the “% Inhibition @ 10 uM” value was 0.64%. With `COc1cc(NC(=O)CCn2cnnn2)nc(OC)n1` the “% Inhibition @ 10 uM” value was -0.92%. With `O=C(CSc1nc2ccccc2nc1N1CCOCC1)NCCc1ccc(Cl)cc1` the “% Inhibition @ 10 uM” value was 0.032%. `Cc1ccnc(NC(=O)C(c2ccccc2)c2ccccc2)c1` was tested, and the “% Inhibition @ 10 uM” value was 3.83%. With `CC1CC(C)CN(C(=O)Cn2ncc3c4ccccc4n(Cc4cccc(Cl)c4)c3c2=O)C1` (centres unmarked) the “% Inhibition @ 10 uM” value was 3.4%. With `CNC(=O)c1nnc(Cc2ccc(F)cc2)o1` the “% Inhibition @ 10 uM” value was -2.8%. For `CCCCNC(=O)c1[nH]c(C)c(C(C)=O)c1C`, the “% Inhibition @ 10 uM” value was -0.719%. In the case of `O=C(NCCC1=CCCCC1)c1ccc(CNC(=O)c2cccc(Br)c2)cc1`, the “% Inhibition @ 10 uM” value was 1.27%. `COc1cc(OC)cc(C(=O)Nc2ccc3nn(-c4ccc(C)cc4)nc3c2)c1` was tested, and the “% Inhibition @ 10 uM” value was 0.214%. For `COc1ccccc1N1CCN(C(=O)c2ccco2)CC1`, the “% Inhibition @ 10 uM” value was 6.08%. With `COc1cc2c(cc1OC)C(c1ccc(O)cc1)NCC2` (centres unmarked) the “% Inhibition @ 10 uM” value was -1.8%. In the case of `CCOC(=O)c1cc(-c2ccccc2)n(CC(=O)NC2CCCc3ccccc32)c1C` (centres unmarked), the “% Inhibition @ 10 uM” value was 1.2%. `COC(=O)c1[nH]c2ccccc2c1NC(=O)CN(C)C` was tested, and the “% Inhibition @ 10 uM” value was -1.6%. In the case of `CCCC(=O)Nc1ccc(-c2cn3ccsc3n2)cc1`, the “% Inhibition @ 10 uM” value was -4.26%. In the case of `CC(C)C(=O)Nc1ccc(N2CCOCC2)c2nonc12`, the “% Inhibition @ 10 uM” value was -1.51%. With `O=C(NCC1CCCO1)c1cc(-c2ccccc2)nc2ccccc12` (centres unmarked) the “% Inhibition @ 10 uM” value was 2.48%. In the case of `O=C1CC(NCCc2ccccc2)C(=O)N1c1ccccc1` (centres unmarked), the “% Inhibition @ 10 uM” value was -17.2%. For `O=S(=O)(Nc1ccc(F)cc1)c1ccc(-c2ccccc2)cc1`, the “% Inhibition @ 10 uM” value was -5.68%. In the case of `CCCCOc1ccc(/C=C(\C#N)c2nc(-c3ccc(C)cc3)cs2)cc1`, the “% Inhibition @ 10 uM” value was -4.21%. With `CCn1c2ccccc2c2cc(CN3CCN(C(=O)c4ccncc4)CC3)ccc21` the “% Inhibition @ 10 uM” value was -3.78%. For `CC(C)CC(=O)Nc1ccc(NC(=O)c2cccs2)cc1`, the “% Inhibition @ 10 uM” value was -0.545%. In the case of `CCOC(=O)c1c(NC(=O)/C(O)=C/C(=O)c2ccc(OC)cc2)sc2c1CCCC2`, the “% Inhibition @ 10 uM” value was 1.86%. In the case of `C#CCNc1c2c(nc3nncn13)CCC2`, the “% Inhibition @ 10 uM” value was 2.34%. With `O=C1c2ccccc2C(=O)N1c1ccc(Cl)c(Cl)c1` the “% Inhibition @ 10 uM” value was -4.86%. With `CC1CCCN(CCCNC(=O)Nc2cn(C)c(=O)c3ccccc23)C1` (centres unmarked) the “% Inhibition @ 10 uM” value was -3.22%. With `CC(C)OC(=O)c1c(N)sc2c1CCCC2` the “% Inhibition @ 10 uM” value was 29.9%. For `CCOC(=O)C1=C(CS(=O)(=O)c2ccc(Cl)cc2)NC(=O)NC1c1ccc(C(C)C)cc1` (centres unmarked), the “% Inhibition @ 10 uM” value was -2.38%. `CC1(C)CC(=O)C2=C(C1)OC(N)=C(C#N)C2c1ccc(COc2ccc(Br)cc2)o1` (centres unmarked) was tested, and the “% Inhibition @ 10 uM” value was -6.51%. In the case of `Cc1ccc(S(=O)(=O)c2cnc3cc4c(cc3c2N2CCC3(CC2)OCCO3)OCCO4)cc1`, the “% Inhibition @ 10 uM” value was -3.5%. In the case of `O=C(CCSCCC(=O)NC1CCCCCC1)NC1CCCCCC1`, the “% Inhibition @ 10 uM” value was 2.48%. With `OCCN1CCN(CC#CCn2c3ccccc3c3ccccc32)CC1` the “% Inhibition @ 10 uM” value was 2.26%. In the case of `Cc1oc2ncn3nc(-c4cccnc4)nc3c2c1C`, the “% Inhibition @ 10 uM” value was -5.87%. `Cc1cc(-c2ccc(C)c(S(=O)(=O)N(CCCN3CCOCC3)Cc3ccco3)c2)on1` was tested, and the “% Inhibition @ 10 uM” value was 7.83%. `CCN1CCN(C(=O)C2=CCN(S(=O)(=O)c3ccc(Br)cc3)CC2)CC1` was tested, and the “% Inhibition @ 10 uM” value was 3.54%. For `Cc1ccc(OC(C)C(=O)N(Cc2ccccc2)C2CCS(=O)(=O)C2)cc1C` (centres unmarked), the “% Inhibition @ 10 uM” value was 0.561%. In the case of `CCCCNS(=O)(=O)c1ccc2nc(-c3cccnc3)cc(C(=O)NCC3CCCN3CC)c2c1` (centres unmarked), the “% Inhibition @ 10 uM” value was -3.21%. With `CCOC(=O)N1CCN(C(=O)C2CCCN(S(=O)(=O)c3cccnc3)C2)CC1` (centres unmarked) the “% Inhibition @ 10 uM” value was -1.03%. With `Cc1cc(-c2ccc(C)o2)c(C#N)c(SCC(=O)c2ccc(Cl)c(Cl)c2)n1` the “% Inhibition @ 10 uM” value was -2.47%. With `CC(=O)c1ccc(OCC(O)CN2CCCC(C)C2)cc1` (centres unmarked) the “% Inhibition @ 10 uM” value was 0.343%. `CC(C)CNC(=O)c1cc2c(=O)n3ccccc3nc2n1C` was tested, and the “% Inhibition @ 10 uM” value was 3.72%. With `CC(=O)c1ccc(NC(=O)CCCCCN2C(=O)c3ccccc3C2=O)cc1` the “% Inhibition @ 10 uM” value was 0.317%. With `CN1CCN(C(=O)c2nn3c(C(F)(F)F)cc(-c4ccccc4)nc3c2Br)CC1` the “% Inhibition @ 10 uM” value was 2.03%. For `Nc1nc(OC(C(F)(F)F)C(F)(F)F)nc(OC(C(F)(F)F)C(F)(F)F)n1`, the “% Inhibition @ 10 uM” value was -2.51%. In the case of `Cc1c(C(c2ccccc2O)c2c(C)n(C)n(-c3ccccc3)c2=O)c(=O)n(-c2ccccc2)n1C`, the “% Inhibition @ 10 uM” value was 0.467%. `CCOC(=O)c1ccc(C)c(CNC(=O)CSc2nnc(-c3ccc(C(C)(C)C)cc3)o2)c1` was tested, and the “% Inhibition @ 10 uM” value was 1.76%. For `CC(C)(C)c1ccc(C(=O)N[C@@H](Cc2cc(Cl)c(O)c(Cl)c2)C(=O)NCC#N)cc1`, the “% Inhibition @ 10 uM” value was -1.41%.
